Holding throughout (assay): co-IP; HEK293 cells transfected with epitope-tagged expression plasmids, lysed 24 h later; lysates immunoprecipitated with anti-Myc or anti-Flag beads and immunoblotted; in Fig. 7f,g with SDC4 overexpressed or knocked down by siRNA
For orientation: In western blotting, separated proteins are transferred to a membrane and probed.

The chains behind the UniProt entries cited, without tags or fusion partners. Residues count along the entry.
UniProt P34741, residues 19-201: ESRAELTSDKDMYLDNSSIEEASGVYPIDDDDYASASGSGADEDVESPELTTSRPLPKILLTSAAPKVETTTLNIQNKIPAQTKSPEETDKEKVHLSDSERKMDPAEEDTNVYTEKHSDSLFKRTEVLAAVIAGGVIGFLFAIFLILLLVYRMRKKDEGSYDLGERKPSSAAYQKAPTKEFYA
UniProt O75056: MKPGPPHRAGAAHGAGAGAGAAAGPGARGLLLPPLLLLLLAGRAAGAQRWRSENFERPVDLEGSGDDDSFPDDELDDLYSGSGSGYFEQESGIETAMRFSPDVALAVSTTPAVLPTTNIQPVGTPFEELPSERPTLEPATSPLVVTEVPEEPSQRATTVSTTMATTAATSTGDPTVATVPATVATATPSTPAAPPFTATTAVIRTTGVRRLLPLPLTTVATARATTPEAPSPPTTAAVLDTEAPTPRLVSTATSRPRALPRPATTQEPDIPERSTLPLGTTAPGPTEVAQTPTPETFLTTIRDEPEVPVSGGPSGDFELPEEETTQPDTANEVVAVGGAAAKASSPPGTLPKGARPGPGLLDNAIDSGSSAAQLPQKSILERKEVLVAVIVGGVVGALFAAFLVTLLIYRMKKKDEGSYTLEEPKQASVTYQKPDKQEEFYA

In one experiment the target is T1, Flag-tagged CYLD (UniProt Q9NQC7).
T1 sequence: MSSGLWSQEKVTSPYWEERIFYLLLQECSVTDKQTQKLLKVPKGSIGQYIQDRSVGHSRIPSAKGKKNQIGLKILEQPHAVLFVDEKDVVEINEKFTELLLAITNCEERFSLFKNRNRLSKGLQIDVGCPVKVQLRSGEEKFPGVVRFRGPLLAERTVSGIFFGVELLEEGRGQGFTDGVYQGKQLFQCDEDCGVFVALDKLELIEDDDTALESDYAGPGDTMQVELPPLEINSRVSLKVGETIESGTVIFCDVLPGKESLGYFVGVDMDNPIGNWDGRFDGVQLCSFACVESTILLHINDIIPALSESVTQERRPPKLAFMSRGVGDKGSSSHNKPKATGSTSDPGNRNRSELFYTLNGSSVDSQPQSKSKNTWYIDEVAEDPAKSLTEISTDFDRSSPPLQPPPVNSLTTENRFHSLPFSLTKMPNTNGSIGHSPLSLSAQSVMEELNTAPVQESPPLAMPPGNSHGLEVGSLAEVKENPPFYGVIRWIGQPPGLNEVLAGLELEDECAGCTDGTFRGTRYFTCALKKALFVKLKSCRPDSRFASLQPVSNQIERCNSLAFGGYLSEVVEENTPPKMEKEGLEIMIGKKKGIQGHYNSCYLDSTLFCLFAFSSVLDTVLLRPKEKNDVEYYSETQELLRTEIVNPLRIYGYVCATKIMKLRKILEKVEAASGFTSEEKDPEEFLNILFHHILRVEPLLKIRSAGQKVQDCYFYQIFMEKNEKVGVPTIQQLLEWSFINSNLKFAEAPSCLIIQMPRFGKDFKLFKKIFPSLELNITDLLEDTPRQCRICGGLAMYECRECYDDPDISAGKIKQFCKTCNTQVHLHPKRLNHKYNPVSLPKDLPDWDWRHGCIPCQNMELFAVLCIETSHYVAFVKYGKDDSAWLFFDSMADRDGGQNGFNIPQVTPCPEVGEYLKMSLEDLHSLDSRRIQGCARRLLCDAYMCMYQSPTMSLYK

Another experiment deals with Myc-tagged SDC2 (UniProt P34741).
The target in a further experiment is T2, Myc-tagged SDC4 (human) (UniProt P31431).
T2 sequence: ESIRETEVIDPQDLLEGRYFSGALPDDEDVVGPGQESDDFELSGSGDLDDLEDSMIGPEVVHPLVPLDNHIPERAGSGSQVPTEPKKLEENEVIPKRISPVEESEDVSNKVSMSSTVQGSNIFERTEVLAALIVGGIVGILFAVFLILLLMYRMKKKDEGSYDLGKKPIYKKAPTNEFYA

The next experiment addresses Myc-tagged SDC3 (UniProt O75056).
The target in the next experiment is T3, Myc-tagged SDC1 (UniProt P18827).
T3 sequence: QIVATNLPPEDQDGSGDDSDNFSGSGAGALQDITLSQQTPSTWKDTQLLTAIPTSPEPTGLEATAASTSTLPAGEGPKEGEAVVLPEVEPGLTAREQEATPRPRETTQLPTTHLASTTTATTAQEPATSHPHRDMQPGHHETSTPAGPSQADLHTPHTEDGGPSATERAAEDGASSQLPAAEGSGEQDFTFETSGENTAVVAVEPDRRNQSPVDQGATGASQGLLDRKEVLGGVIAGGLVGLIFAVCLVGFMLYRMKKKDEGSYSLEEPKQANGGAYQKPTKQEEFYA

These are yes or no findings as the source states them, for the method shown. In cells and extracts the contact can be indirect. Some results given as binding are weak or reduced against the parent protein; the word gives no strength. For some assays here: Tags and fused reporters may be left off the sequences shown.

B1: RIG-I, transfected, construct not told for the experiment (protein, UniProt O95786 1-925)
chain: MTTEQRRSLQAFQDYIRKTLDPTYILSYMAPWFREEEVQYIQAEKNNKGPMEAATLFLKFLLELQEEGWFRGFLDALDHAGYSGLYEAIESWDFKKIEKLEEYRLLLKRLQPEFKTRIIPTDIISDLSECLINQECEEILQICSTKGMMAGAEKLVECLLRSDKENWPKTLKLALEKERNKFSELWIVEKGIKDVETEDLEDKMETSDIQIFYQEDPECQNLSENSCPPSEVSDTNLYSPFKPRNYQLELALPAMKGKNTIICAPTGCGKTFVSLLICEHHLKKFPQGQKGKVVFFANQIPVYEQQKSVFSKYFERHGYRVTGISGATAENVPVEQIVENNDIIILTPQILVNNLKKGTIPSLSIFTLMIFDECHNTSKQHPYNMIMFNYLDQKLGGSSGPLPQVIGLTASVGVGDAKNTDEALDYICKLCASLDASVIATVKHNLEELEQVVYKPQKFFRKVESRISDKFKYIIAQLMRDTESLAKRICKDLENLSQIQNREFGTQKYEQWIVTVQKACMVFQMPDKDEESRICKALFLYTSHLRKYNDALIISEHARMKDALDYLKDFFSNVRAAGFDEIEQDLTQRFEEKLQELESVSRDPSNENPKLEDLCFILQEEYHLNPETITILFVKTRALVDALKNWIEGNPKLSFLKPGILTGRGKTNQNTGMTLPAQKCILDAFKASGDHNILIATSVADEGIDIAQCNLVILYEYVGNVIKMIQTRGRGRARGSKCFLLTSNAGVIEKEQINMYKEKMMNDSILRLQTWDEAVFREKILHIQTHEKFIRDSQEKPKPVPDKENKKLLCRKCKALACYTADVRVIEECHYTVLGDAFKECFVSRPHPKPKQFSSFEKRAKIFCARQNCSHDWGIHVKYKTFEIPVIKIESFVVEDIATGVQTLYSKWKDFHFEKIPFDPAEMSK
On to B1, for which the binding result with Flag-tagged CYLD is given as “binds”; in the experiment with Myc-tagged SDC2, “no binding”; with Myc-tagged SDC4 (human), “binds”; with Myc-tagged SDC3, “no binding”; with Myc-tagged SDC1, “no binding”.

The values above are taken from paper PMC4906230.
